# Experimental data taken from the supplement of paper PMC9174493.
# The other results are listed elsewhere or left out. Single values of this set are uncertain. Values with irradiation are relative to irradiated vehicle.
# System: A549-Dual
# Assay: NF-kB reporter (SEAP) activity, viability-corrected, relative to vehicle (fold change vs vehicle); higher = more activation of STING-IRF / NF-kB immune response reporter
# Conditions: 10 µM; irradiation: none
# 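Also: viability correction based on the alamar blue assay, with concentrations leaving 10% survival or less dropped.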
row,Compound,NF-kB reporter
1,CNCCCC12CCC(c3ccccc31)c1ccccc12.Cl [Maprotiline HCl],1.04
2,CN(C)CCc1c[nH]c2ccc(Cn3cncn3)cc12.O=C(O)c1ccccc1 [Rizatriptan Benzoate],1.18
3,CCC(C)C(=O)OC1CC(O)C=C2C=CC(C)C(CCC(O)CC(O)CC(=O)[O-])C21.[Na+] (centres undefined) [Pravastatin sodium],0.74
4,CCCCOc1cc(C(=O)OCCN(CC)CC)ccc1N.Cl [Oxybuprocaine HCl],1.37
5,COc1cc(C)c(/C=C/C(C)=C/C=C/C(C)=C/C(=O)O)c(C)c1C [Acitretin],0.746
6,CN1CCN(C2=Nc3cc(Cl)ccc3Nc3ccccc32)CC1 [Clozapine],1.28
7,Cc1ccccc1C(OCCN(C)C)c1ccccc1.O=C(O)CC(O)(CC(=O)O)C(=O)O (centres undefined) [Orphenadrine Citrate],0.796
8,COc1ccc(C(C)=O)c(O)c1 [Paeonol],0.917
9,C[N+]1(C)C2CCC1CC(OC(=O)C(O)c1ccccc1)C2.[Br-] (centres undefined) [Homatropine Methylbromide],1.67
10,Cl.Clc1cccc(Cl)c1NC1=NCCN1 [Clonidine HCl],0.945
11,COc1ccc(/C=C/c2cc(OC)cc(=O)o2)cc1 [Yangonin],1.02
12,CC(CCc1ccccc1)NCC(O)c1ccc(O)c(C(N)=O)c1.Cl (centres undefined) [Labetalol HCl],1.26
13,[Cl][Cs] [Cesium chloride],1.16
14,COc1cc2c(cc1O)CCC1C2CCC2(C)C(O)CCC12 (centres undefined) [2-Methoxyestradiol (2-MeOE2)],1.28
15,Cc1cn(C2CC(N=[N+]=[N-])C(CO)O2)c(=O)[nH]c1=O (centres undefined) [Zidovudine],1.24
16,COC(=O)C(c1ccccc1Cl)N1CCc2sccc2C1.O=S(=O)(O)O (centres undefined) [Clopidogrel],1.06
17,Cc1c(C(C)C)c(=O)n(-c2ccccc2)n1C [Propyphenazone (4-Isopropylantipyrine)],0.86

row,Compound,NF-kB reporter
1,Cl.N[C@@H](CS)C(=O)O [L-Cysteine HCl],0.791
2,O=c1[nH]cnc2c1ncn2C1CCC(CO)O1 (centres undefined) [Didanosine],0.917
3,O=[N+]([O-])c1ccc(O)cc1 [4-Nitrophenol],0.991
4,CCCOc1ccc(C(=O)OCCN(CC)CC)cc1N.Cl [Proparacaine HCl],0.788
5,CCN(CCO)CCCC(C)Nc1ccnc2cc(Cl)ccc12.O=S(=O)(O)O (centres undefined) [Hydroxychloroquine Sulfate],0.885
6,O=S(=O)([O-])Oc1ccc(C(c2ccc(OS(=O)(=O)[O-])cc2)c2ccccn2)cc1.[Na+].[Na+] [Sodium Picosulfate],0.744
7,CN/C(=C\[N+](=O)[O-])NCCSCc1ccc(CN(C)C)o1.Cl [Ranitidine Hydrochloride],0.959
8,CC(=O)O.CC(C)CC(NC(=O)C(COC(C)(C)C)NC(=O)C(Cc1ccc(O)cc1)NC(=O)C(CO)NC(=O)C(Cc1c[nH]c2ccccc12)NC(=O)C(Cc1cnc[nH]1)NC(=O)C1CCC(=O)N1)C(=O)NC(CCCN=C(N)N)C(=O)N1CCCC1C(=O)NNC(N)=O (centres undefined) [Goserelin Acetate],1.15
9,O=c1c(OC2OC(CO)C(O)C(O)C2O)c(-c2ccc(O)c(O)c2)oc2cc(O)cc(O)c12 (centres undefined) [Isoquercitrin],0.659
10,CN/C(=C\[N+](=O)[O-])NCCSCc1ccc(CN(C)C)o1 [Ranitidine],0.864
11,CNCCC=C1c2ccccc2CCc2ccccc21.Cl [Nortriptyline hydrochloride],0.665
12,COC(=O)c1cc(OC)c2c(c1-c1c(CO)cc(OC)c3c1OCO3)OCO2 [Bicyclol],0.771
13,CCn1cc(C(=O)O)c(=O)c2cc(F)c(N3CCNC(C)C3)c(F)c21 (centres undefined) [Lomefloxacin],0.895
14,CC(C)(C)C(=O)C(Oc1ccc(Cl)cc1)n1ccnc1 (centres undefined) [Climbazole],1.03
15,COc1cc2nc(N3CCN(C(=O)C4COc5ccccc5O4)CC3)nc(N)c2cc1OC.CS(=O)(=O)O (centres undefined) [Doxazosin Mesylate],0.998
16,O=C(O)/C=C(/CC(=O)O)C(=O)O [cis-Aconitic acid],0.631
17,CCn1cc(C(=O)O)c(=O)c2cc(F)c(N3CCN(C)CC3)cc21.CS(=O)(=O)O [Pefloxacin Mesylate],1.08
